Source: paper PMC7819943, “Rice protein-binding microarrays: a tool to detect cis-acting elements near promoter regions in rice”
The other results are listed elsewhere or left out.

biological target: T1, OsWOX13 (Oryza sativa, UniProt Q5QMM3 1-267); test: protein-binding microarray (RPBM); PBS, 2% BSA, 51.3 ng/ul salmon testes DNA, 50 uM zinc acetate, 200 nM TF, 25 C, 1 h; high values mean tight binding; conditions: protein: recombinant; tags: N-terminal polyhistidine and DsRed monomer fusion (pET32a); label: CyDye5-dUTP incorporated in the synthesized complementary strand; 3' TTTTT single-stranded linker to array surface; dsDNA, one strand shown
T1 sequence: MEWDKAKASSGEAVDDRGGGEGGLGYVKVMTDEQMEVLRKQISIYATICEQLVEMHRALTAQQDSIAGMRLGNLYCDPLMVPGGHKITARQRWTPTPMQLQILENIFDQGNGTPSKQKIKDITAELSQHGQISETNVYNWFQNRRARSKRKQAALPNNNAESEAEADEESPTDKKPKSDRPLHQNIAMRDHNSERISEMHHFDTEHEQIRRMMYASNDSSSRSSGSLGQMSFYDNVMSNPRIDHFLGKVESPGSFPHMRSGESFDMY
In short: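 In PBS with 2% BSA, salmon testes DNA and 50 µM zinc acetate, 200 nM protein was incubated on a custom Agilent array at 25 °C for 1 h and then washed off. The array had been made double-stranded by primer extension with Cy5-dUTP and blocked with 2% BSA. The proteins were transcription factors fused N-terminally to polyhistidine and DsRed, expressed in E. coli BL21-CodonPlus and purified on Ni–NTA. The binding signal is per-feature fluorescence intensity (arbitrary units) from an Axon 4000B scanner.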

Sequence | binding signal
GATAATGGCCCTTAAATTGATTGCAACTCACGGTGATACACGGAGTCACCTAGTGCAG | 44800 fluorescence intensity (a.u.)
TATATATATATATATATATATATATATATGAGAAGGTTACCGGAGTCACCTAGTGCAG | 11900 fluorescence intensity (a.u.)
TTGATTGATTTGTTTGCACTCCATGAAATAAGTGAGGGCTCGGAGTCACCTAGTGCAG | 65200 fluorescence intensity (a.u.)
TTGTGTGCTTCAATTTAATTTGTATCTCAAATTCTTTCAGCGGAGTCACCTAGTGCAG | 4340 fluorescence intensity (a.u.)
GGCACCTCTATGATTGATGGTTACATTGAGACCGATTGTGCGGAGTCACCTAGTGCAG | 46900 fluorescence intensity (a.u.)
TTCAATTAGTTACATATCAATTGCTGGTTTACAGAGTTGGCGGAGTCACCTAGTGCAG | 15000 fluorescence intensity (a.u.)
TAGAACAACCAATCAAACAAATATGCTGTTCATTGTTGAACGGAGTCACCTAGTGCAG | 10400 fluorescence intensity (a.u.)
ATATTAAATTTATAGTTTTACGATAATTTGACCAATATATCGGAGTCACCTAGTGCAG | 8760 fluorescence intensity (a.u.)
CTAACTAATCTAATCTCCCTCCTGTATCTTGCGCGGTTGGCGGAGTCACCTAGTGCAG | 6470 fluorescence intensity (a.u.)
GATCTGATTGAGACATATCTGAAAATAATTTGCACGCAGACGGAGTCACCTAGTGCAG | 30600 fluorescence intensity (a.u.)
TCCAAAGGAAATCGTGACTTAATTAACACCATTTCTCTACCGGAGTCACCTAGTGCAG | 3880 fluorescence intensity (a.u.)
AAGGTAATTAAGGTCGATGGAATTTCTCAGATTAAATGGCCGGAGTCACCTAGTGCAG | 24200 fluorescence intensity (a.u.)
TTTCATATTATAAATCAAATTTGTTTAGCTTTGACAATGTCGGAGTCACCTAGTGCAG | 11100 fluorescence intensity (a.u.)
TGTATAATTTTGTGATTTGCTGTATGGATCTGAGATGTATCGGAGTCACCTAGTGCAG | 32700 fluorescence intensity (a.u.)
CTACCCTCTTGTGATTAGATAATGCAGTGGTTCTCTGAACCGGAGTCACCTAGTGCAG | 4680 fluorescence intensity (a.u.)
AGGATCAAAATTGCATGATTTTGTATAGTTTAGGGATGAACGGAGTCACCTAGTGCAG | 3210 fluorescence intensity (a.u.)
CTAGATTAGTCCTCCCTATCCTTGATAATTACGCACGCTCCGGAGTCACCTAGTGCAG | 22800 fluorescence intensity (a.u.)
ACGATTGAACTAGTTTAGTGGGTCCCTATTAGGTTATCTTCGGAGTCACCTAGTGCAG | 4670 fluorescence intensity (a.u.)
TACTGTAATGTAATTACAATATAACTACATTGTAATCTCTCGGAGTCACCTAGTGCAG | 12100 fluorescence intensity (a.u.)
TTCCAATGTTAATTGTTTGCAAATTGTCATTGTTTGCTGGCGGAGTCACCTAGTGCAG | 28000 fluorescence intensity (a.u.)
GGTCAAATTTAAACTTGTATGTTAGTGTAGTGATATCTCACGGAGTCACCTAGTGCAG | 7670 fluorescence intensity (a.u.)

Sequence | binding signal
TTAATTTATATTAGAGTTTACATATATACTCCCTCCATCTCGGAGTCACCTAGTGCAG | 11300 fluorescence intensity (a.u.)
TATTACCTTAATTTCCTACTAATCGTAGTAGGCTGCTACTCGGAGTCACCTAGTGCAG | 4860 fluorescence intensity (a.u.)
GGATTGGTACGTCTAAATTCAATTAATGTGTAGTATGTTCCGGAGTCACCTAGTGCAG | 6100 fluorescence intensity (a.u.)
GTGTTATCTGTAAGGCTGTAATTGAACTTGCTTGTGATGTCGGAGTCACCTAGTGCAG | 3470 fluorescence intensity (a.u.)
CAGGTTATTTCACAGGATTGATCAGGACAATGATGGAAAGCGGAGTCACCTAGTGCAG | 8170 fluorescence intensity (a.u.)
TACAATTGATTATGTAAAGTTTGTGTCTTGTACTAGAGGGCGGAGTCACCTAGTGCAG | 43900 fluorescence intensity (a.u.)
ATAAATGGCTAACCCTGATTATTTTACAGGCGAATCGCTTCGGAGTCACCTAGTGCAG | 10900 fluorescence intensity (a.u.)
ATGTTGATTGCACAATAGAGAATCATCCAACTAGAATGACCGGAGTCACCTAGTGCAG | 27100 fluorescence intensity (a.u.)
AATATCAATCAATAGCTTTGCGGCGACGCCCTTCCTCGCGCGGAGTCACCTAGTGCAG | 20300 fluorescence intensity (a.u.)
CTTAATTAGCGCGAATATATCTAACATATGCATATGGAAGCGGAGTCACCTAGTGCAG | 24600 fluorescence intensity (a.u.)
ATTTGTTGATTGCTCTGTTGGGTTACCATCGATTTCTCTGCGGAGTCACCTAGTGCAG | 36700 fluorescence intensity (a.u.)
TACCCCAATCAAACCTAACACATCTTAACAAATCCCATTTCGGAGTCACCTAGTGCAG | 3660 fluorescence intensity (a.u.)
CCGCTGTCATCTCCTTTACTGATAACCATTTACTCATCCACGGAGTCACCTAGTGCAG | 3980 fluorescence intensity (a.u.)
TTGGGTAAAACCTATAGTTTAACTGCTTATCCATATATTACGGAGTCACCTAGTGCAG | 15100 fluorescence intensity (a.u.)
GGTGTAAATTGGACTTATCCCCAAATTACCTCGAGGCCCACGGAGTCACCTAGTGCAG | 30700 fluorescence intensity (a.u.)
ACTAATTATACAGATTGCGTGTAAATTGTGAGACGAATCTCGGAGTCACCTAGTGCAG | 41000 fluorescence intensity (a.u.)
AATAAATATATATATATACCTAAATTTATTAACATGTGGACGGAGTCACCTAGTGCAG | 3180 fluorescence intensity (a.u.)
TGAGGATGATTGCCCAACGGATGGGAGAGACGACGGCTACCGGAGTCACCTAGTGCAG | 9400 fluorescence intensity (a.u.)
TGGATTGGATTAGTGTGTCCCTGCCTCTCTGGAATGGATACGGAGTCACCTAGTGCAG | 6490 fluorescence intensity (a.u.)
GCAATCACCATTTTGTAAACAAATCATGCATCCTGCCGGTCGGAGTCACCTAGTGCAG | 6260 fluorescence intensity (a.u.)
AGGTCAATCAACACTAACAAATGGCTTTATATATACATAGCGGAGTCACCTAGTGCAG | 26200 fluorescence intensity (a.u.)

Sequence | binding signal
GGGGTTAGATGGGCTCATTTAGATGGGATTAAATGGGCCGCGGAGTCACCTAGTGCAG | 5080 fluorescence intensity (a.u.)
TGATTGATTGCTTGATTGGGAGTGTCCTTTGGGCGAGCTGCGGAGTCACCTAGTGCAG | 64900 fluorescence intensity (a.u.)
CGGAAACAGATCATCAAACCCATACGTCAGTGATCCAAGTCGGAGTCACCTAGTGCAG | 3420 fluorescence intensity (a.u.)
TCCCTGTTGATGAAATGACAACCACATCGAATAGGTAGGGCGGAGTCACCTAGTGCAG | 3230 fluorescence intensity (a.u.)
ATAATTTGCATGTAAATTATAAGACGAATCTTTTGAGCCTCGGAGTCACCTAGTGCAG | 36600 fluorescence intensity (a.u.)
CTTGTGATGATACTGATAGACGGTTGTTCCAAGCAGCAACCGGAGTCACCTAGTGCAG | 13400 fluorescence intensity (a.u.)
CATTTTGTTAGATTGAGTCTTTTCTTTCTTCTTCATCTATCGGAGTCACCTAGTGCAG | 5960 fluorescence intensity (a.u.)
TATAATTGTAGGATTGGGATTTGTATATTAATATATACAGCGGAGTCACCTAGTGCAG | 21200 fluorescence intensity (a.u.)
ACTGATTGTATTGTATAGTAGTATTGCTGTATTAGTTTGTCGGAGTCACCTAGTGCAG | 31500 fluorescence intensity (a.u.)
CACCAAGAATTGAATTAATTATGTATATATATTGCCAATCCGGAGTCACCTAGTGCAG | 10600 fluorescence intensity (a.u.)
AGATTAAGATTAAGTGATTTACGTAAAACGAGGTAATAATCGGAGTCACCTAGTGCAG | 3310 fluorescence intensity (a.u.)
TTGATTGCTTGTTTGATTGGTGGTTCTTGAGCGAGAAGAGCGGAGTCACCTAGTGCAG | 63300 fluorescence intensity (a.u.)
TAGTTAAATCCATCAATCCAGGATGGTTCATTTGATTTAGCGGAGTCACCTAGTGCAG | 4240 fluorescence intensity (a.u.)
AATGTGTAATTATTTCGAGGAAAAGTTTCTTTTCTCCCTTCGGAGTCACCTAGTGCAG | 5400 fluorescence intensity (a.u.)
AGTGATTGTGTTTAATCTTAATGACTCGCTCCCCTCACACCGGAGTCACCTAGTGCAG | 27000 fluorescence intensity (a.u.)
TTTTGTACAAAATCATGTCATAATGATATCGTGCCTTGTACGGAGTCACCTAGTGCAG | 3420 fluorescence intensity (a.u.)
ACTGATTATTATATAAATTTGAGCATATTTATTTACATTACGGAGTCACCTAGTGCAG | 38600 fluorescence intensity (a.u.)
TCTAAAATTAAGTTTTAAAACTTAAATTCGGTTGTGGCTGCGGAGTCACCTAGTGCAG | 7170 fluorescence intensity (a.u.)
TGGACCGAAAATTGATAAGTAGACTTATTAGGAGGTTGATCGGAGTCACCTAGTGCAG | 7240 fluorescence intensity (a.u.)
TTGCTAAATTGTTCTATAAACTTTGTCAAACTTAACTAGGCGGAGTCACCTAGTGCAG | 9210 fluorescence intensity (a.u.)
CCCAGTCAATCTCCCCATCTCCTCGGCCTCGGCAATAGTACGGAGTCACCTAGTGCAG | 7200 fluorescence intensity (a.u.)

Sequence | binding signal
TGTAGTCTGCAGGTGATTGAAACCATCTGTAATACAATAACGGAGTCACCTAGTGCAG | 7410 fluorescence intensity (a.u.)
TAGGTAATAAATATGCAACAATTGACATATTTCTACCCGCCGGAGTCACCTAGTGCAG | 3330 fluorescence intensity (a.u.)
TCTTAATCATCCAGCATTTGATAAACTTTGGCACATTTCTCGGAGTCACCTAGTGCAG | 4500 fluorescence intensity (a.u.)
AACACAAAATTGATGTTAAAGTTTAACCAAACCATTATCTCGGAGTCACCTAGTGCAG | 7820 fluorescence intensity (a.u.)
ACGCAAATGATTGTGTGTAGATCGATCGATCTGTTACTACCGGAGTCACCTAGTGCAG | 12800 fluorescence intensity (a.u.)
ATTGTATGAATTAGCTATTAAATTGACTATATATATGATTCGGAGTCACCTAGTGCAG | 13500 fluorescence intensity (a.u.)
ATTTGTAATTACATGTTAATTATAATGTAATCATATTATACGGAGTCACCTAGTGCAG | 31100 fluorescence intensity (a.u.)
TTAATTTGTCACCGAGTAGGAAATTCATCCATGGACTGCACGGAGTCACCTAGTGCAG | 3290 fluorescence intensity (a.u.)
GTTTACAATAATTAATATCCAATTAATCATGCACTAATAACGGAGTCACCTAGTGCAG | 24500 fluorescence intensity (a.u.)
ATCCATGGTTATTTGATTGATGGATATCTATCTTCTCTTGCGGAGTCACCTAGTGCAG | 32800 fluorescence intensity (a.u.)
TCCTTGATGGTTATCTAAATTTATATCAGATATATTGAGTCGGAGTCACCTAGTGCAG | 23600 fluorescence intensity (a.u.)
AACCACGTTGATTATCCCGAGTTCCCGACACCGTTGGAAACGGAGTCACCTAGTGCAG | 6200 fluorescence intensity (a.u.)
GTTATAACAAATTTGTTTTGCGTGGTTTATTGTAAAATTACGGAGTCACCTAGTGCAG | 12700 fluorescence intensity (a.u.)
CTAACCTATTAATCAAATTACTAGCATCTGAAATCAACGCCGGAGTCACCTAGTGCAG | 10300 fluorescence intensity (a.u.)
CGGATTGGGAGTAATTAATTACTCCTACTACTACTAGTGTCGGAGTCACCTAGTGCAG | 42000 fluorescence intensity (a.u.)
GAGTTATTTATGATTTGTATTCCCAAGGCTTGACTTAAACCGGAGTCACCTAGTGCAG | 7160 fluorescence intensity (a.u.)
TTTTATTGATTACGGAAAAGAGGATTACATTCTTGGTCTACGGAGTCACCTAGTGCAG | 24800 fluorescence intensity (a.u.)
CAAATTTTAAATAGTTTTAAATTCCTATATAGACACTGTACGGAGTCACCTAGTGCAG | 3180 fluorescence intensity (a.u.)
TCATGATTAAGATGGGCTCACTATGTAATTTTATTTATAACGGAGTCACCTAGTGCAG | 8240 fluorescence intensity (a.u.)
GCCAAGCTTAATTAATTATGCCAAAGAATCATCGCACTATCGGAGTCACCTAGTGCAG | 19400 fluorescence intensity (a.u.)
ATTTAAAATTACAAAATAATTAATAACTATCATGTATTTACGGAGTCACCTAGTGCAG | 7060 fluorescence intensity (a.u.)
